Out of some 140,000 compounds screened, about 240 (0.17%) were called active. This list was built around the results that the source calls inconclusive (neither active nor inactive); the mix of calls is not that of the screen. Calls come from the whole dose curve; as a rule, active = well fitted inhibition curve with a large enough effect; inconclusive = small, poorly fitted or top-dose-only effect; inactive = no such curve, though single readings can be large or run the other way. Where the call is inconclusive, the potency comes from a doubtful curve fit.
assay: Primary qHTS assay for inhibitors of alpha-synuclein gene (SNCA) expression; conditions: HEK-293 SNCA-luciferase knock-in, luminescence, 24 h; activity change, negative = inhibition: at 57.2 µM (top of the series) unless noted; note: nearly all actives have a fitted effect of over 45% in size;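 for activity change, negative = inhibition: plate controls were DMSO cells for no effect and cell-free wells for full effect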
Potency is the fitted concentration of half-maximal effect; tags give direction and shape of the fitted curve.

| Structure (SMILES) | Potency | activity change, negative = inhibition |
| --- | --- | --- |
| CCCCN(CCCNC(=O)c1cc(Nc2ccc(OC)cc2OC)nc2ccccc12)Cc1ccccc1 | inconclusive: 31.6 µM [inhibitor, single point] | – |
| O=C(c1ccc(Cn2ccnc2)o1)N1CC2CC(C1)[C@H]1CCCC(=O)N1C2 (stereo partly specified) | inconclusive: 39.8 µM [inhibitor, single point] | – |
| Fc1ccc(-c2cc(-c3cn[nH]c3)c3cncn3c2)cc1 | inconclusive: 22.4 µM [inhibitor, partial curve, poor fit] | – |
| CN(C)CCc1c[nH]c2ccc(Cn3cncn3)cc12 | active: 2.71 µM | – |
| CNC(=O)N1CCC(C2CCN(C(=O)c3cnccn3)C2)CC1 (stereo unspecified) | inconclusive: 28.2 µM [inhibitor, single point] | – |
| O=C1COc2ccc(-c3cccnc3)nc2CN1Cc1ccc(C(F)(F)F)cc1 | inconclusive: 2.51 µM [inhibitor, full curve, poor fit] | – |
| CC(=O)N1CCC(NC[C@@H]2C=C(C)[C@H](Cc3nc4ccccc4[nH]3)C[C@H]2C(C)C)CC1 | – | inactive: -20.6% [at 87.6 µM] |
| CC1(COc2ccccc2)COc2ccc(C(=O)NC3CCC(O)CC3)cc2N1 (stereo unspecified) | – | inactive: -26.3% [at 87.6 µM] |
| CNC(=O)c1cccc2c1CCN2C(=O)Nc1ccc(C)cc1 | inconclusive: 1.41 µM [inhibitor, full curve, poor fit] | – |
| O=C(NCc1ccccc1Cl)c1csc(N2CCN(c3ccc(F)cc3)CC2)n1 | inconclusive: 7.08 µM [inhibitor, full curve, poor fit] | – |
| C[C@H]1[C@@H]2[C@@H](O)C([C@H](C)C(=O)NCc3ccccn3)CC[C@@]2(C)CC[C@@H]1NC(=O)c1ccccc1 (stereo partly specified) | inconclusive: 12.6 µM [inhibitor, single point] | – |
| COc1ccc(-c2noc(-c3ncn4c3COC(c3ccc(F)cc3)C4)n2)c(OC)c1 (stereo unspecified) | inconclusive: 10 µM [inhibitor, partial curve] | – |
| O=C1NCCCCCCN(C(=O)CC2CCCCC2)[C@H]2C[C@H](c3nc(Cc4ccccc4)no3)C[C@@H]12 | – | inactive: 11.7% |
| Cn1cc(S(=O)(=O)N2Cc3ccccc3C[C@H]2C(=O)NC(C)(C)C)cn1 | inconclusive: 11.2 µM [inhibitor, partial curve, poor fit] | – |
| CNC(=O)C1CCC(Cn2c(=O)c3sccc3n(Cc3ccccc3)c2=O)CC1 (stereo unspecified) | inconclusive: 7.08 µM [inhibitor, single point] | – |
| CC(C)N1CC2(C1)C(=O)N(Cc1ccccc1F)C(=O)[C@@H]1C[C@@H](O)CN12 | inconclusive: 5.01 µM [inhibitor, full curve] | – |
| CC#CCn1cc2c3c(cccc31)[C@H](CC(C)C)N[C@H](C(=O)OC)C2 | – | inactive: -7.49% [at 87.6 µM] |
| O=C(Cn1nc2c(cc1=O)CCCC2)NC1CCN(C(=O)c2cc3ccccc3[nH]2)CC1 | inconclusive: 8.91 µM [inhibitor, single point] | – |
| COc1ccccc1-c1[nH]nc2ncc(C(=O)NCCc3ccccn3)nc12 | – | inactive: 2.38% [at 87.6 µM] |
| COc1ccccc1Nc1ccnc(N2CCCC2C(=O)NCC2CC2)n1 (stereo unspecified) | – | inactive: 6.38% |
| COc1cccc(N2C(=O)NC(=NC3CCCC3)C23CCN(Cc2ccc(N(C)C)cc2)C3)c1 (stereo unspecified) | inconclusive: 6.31 µM [inhibitor, partial curve, poor fit] | – |

| Structure (SMILES) | Potency | activity change, negative = inhibition |
| --- | --- | --- |
| COc1ccc(CC(=O)Nc2ccc([C@@H](O)[C@H]3COCC(=O)N3Cc3ccc(C(F)(F)F)cc3)cc2)cc1 | inconclusive: 39.8 µM [inhibitor, single point] | – |
| CCNC(=O)C12CCCC=C1N(C1CCCC1)C(=O)CC2 (stereo unspecified) | – | inactive: 113% |
| CCn1c(Oc2ccc(F)cc2F)nc2c1c(=O)n(C)c(=O)n2C | inconclusive: 15.8 µM [inhibitor, partial curve, poor fit] | – |
| CC1(CNc2ccccc2)COc2ccc(C(=O)NCCN3CCOCC3)cc2N1 (stereo unspecified) | – | inactive: -18.1% [at 87.6 µM] |
| Cc1ccccc1NC(=O)CSc1ncc2c(n1)-c1ccccc1N(C)S2(=O)=O | inconclusive: 2.51 µM [inhibitor, single point] | – |
| COc1ccccc1-n1cc(C(=O)NC(Cc2ccco2)C(=O)O)cn1 (stereo unspecified) | inconclusive: 25.1 µM [inhibitor, single point] | – |
| CC(C)Oc1ccc(C(=O)NC2CCN(c3cnn(CC4CC4)c(=O)c3)CC2)cc1 | – | inactive: -4.11% |
| CN(C)C[C@@H]1CN(c2ncccn2)C[C@H]1NC(=O)c1nn(C)c2ccccc12 | – | inactive: 4.26% |
| CCN1C(C(=O)c2ccccc2)=C(OC(=O)c2ccc(Cl)cc2)c2ccccc2S1(=O)=O | inconclusive: 39.8 µM [inhibitor, single point] | – |
| O=C1COCC2(CN1Cc1cccc(OC(F)(F)F)c1)CN(c1ccccn1)C2 | inconclusive: 1.12 µM [inhibitor, full curve, poor fit] | – |
| Cn1nc(-c2ccncc2)cc1NC(=O)c1ccccc1F | – | inactive: -16.7% [at 87.6 µM] |
| CC1=C[C@@H](CN2CCN(c3ncccn3)CC2)[C@H](C(C)C)C[C@H]1Cc1nnc(-c2ccc(N(C)C)cc2)o1 | inconclusive: 39.8 µM [inhibitor, single point] | – |
| CCN(C(=O)c1cc(S(=O)(=O)N2CCCCC2)c[nH]1)c1ccc(OC)cc1 | inconclusive: 39.8 µM [inhibitor, partial curve, poor fit] | – |
| COc1ccc(CNC(=O)c2cnn(-c3ccc(C)cc3)c2C2CCN(C(=O)OC(C)(C)C)CC2)cc1 | inconclusive: 35.5 µM [inhibitor, single point] | – |
| COCCCNC(=O)C1c2ccccc2C(=O)N(CC(C)C)C12CCCCC2 (stereo unspecified) | inconclusive: 25.1 µM [inhibitor, single point] | – |
| CCN1c2cc(C(=O)Nc3cccc(C(=O)OC)c3)ccc2C(=O)N2CCCCCC21 (stereo unspecified) | – | inactive: -6.81% |
| COc1cc(Cl)c(C)cc1NC(=O)CSCc1nc(-c2ccc(OC)c(OC)c2)no1 | inconclusive: 5.01 µM [inhibitor, single point] | – |
| CCCN1C(=O)CC[C@H]2CN(C(=O)c3cnc(C4CC4)[nH]c3=O)CC[C@H]21 | inconclusive: 6.31 µM [inhibitor, single point] | – |
| Cc1cc(C)cc(N(CC(=O)Nc2ccc(C(F)(F)F)cc2)S(=O)(=O)c2c(C)[nH]c(=O)[nH]c2=O)c1 | inconclusive: 1 µM [inhibitor, partial curve, poor fit] | – |
| O=C(c1ccc(F)cc1)N1CCC(C(=O)N2CCC(c3nc4ncccc4[nH]3)C2)CC1 (stereo unspecified) | inconclusive: 7.08 µM [inhibitor, single point] | – |
| COc1ccc(C2Cn3nnc(C(=O)N4CCN(C(=O)c5cccs5)CC4)c3CO2)cc1 (stereo unspecified) | inconclusive: 10 µM [inhibitor, partial curve, poor fit] | – |

| Structure (SMILES) | Potency | activity change, negative = inhibition |
| --- | --- | --- |
| O=C(NCCc1nc(-c2cccnc2)no1)C1NCCc2[nH]cnc21 (stereo unspecified) | inconclusive: 3.16 µM [inhibitor, single point] | – |
| Cc1ccc(C(=O)N2CCC3(CC2)CC(N(Cc2ccccc2)C2CC2)CCO3)s1 (stereo unspecified) | inconclusive: 20 µM [inhibitor, single point] | – |
| c1cncc(Nc2cc3c(cn2)CN(CC2CCOCC2)CCN3)c1 | – | inactive: -0.807% [at 87.6 µM] |
| O=C(CSc1nc(-c2ccccc2)[nH]c1-c1ccc(F)cc1)NC1CCCC1 | inconclusive: 39.8 µM [inhibitor, single point] | – |
| CC(C)(C)c1ccc(C(=O)Nc2ccc3nc(SCC(=O)N4CCCC4)sc3c2)cc1 | inconclusive: 39.8 µM [inhibitor, single point] | – |
| COc1ccc(CCNC(=O)c2cc3n(n2)CC(c2ccc4c(c2)OCO4)OC3)cc1OC (stereo unspecified) | – | inactive: -5.53% |
| O=C(C1CC1)N1CCC(OC2CCN(Cc3cccnc3)CC2)CC1 | inconclusive: 7.94 µM [inhibitor, partial curve, poor fit] | – |
| COc1ccccc1C(=O)CC1(O)C(=O)N(CC(N)=O)c2ccccc21 (stereo unspecified) | inconclusive: 31.6 µM [inhibitor, partial curve, poor fit] | – |
| CCc1ccccc1NC(=O)C1=CC(c2ccc3c(c2)OCO3)=NS(=O)(=O)N1C | inconclusive: 7.08 µM [inhibitor, single point] | – |
| CC(C)NS(=O)(=O)c1ccc(OCC(=O)N2CCN(c3cccc(Cl)c3)CC2)cc1 | inconclusive: 2 µM [inhibitor, full curve] | – |
| COc1cc(-c2ccnc3nc(Cc4ccc(F)cc4)nn23)cc(OC)c1OC | inconclusive: 39.8 µM [inhibitor, single point] | – |
| CC(C)NC(=O)C[C@@H]1O[C@H](CNCc2cccc(Cl)c2)[C@@H](O)[C@H]1O | inconclusive: 7.08 µM [inhibitor, single point] | – |
| COCCCNc1nc2c([S+](=O)([O-])c3ccncc3)nnn2c2ccccc12 | inconclusive: 8.91 µM [inhibitor, single point] | – |
| CCOC(=O)c1ccc(N2C(=O)c3n[nH]c(-c4ccco4)c3C2c2cccc(F)c2)cc1 (stereo unspecified) | inconclusive: 39.8 µM [inhibitor, partial curve, poor fit] | – |
| C1CC(COCCc2noc(C3CNC3)n2)CCO1 | inconclusive: 17.8 µM [inhibitor, partial curve, poor fit] | – |
| COc1ccc(C(=O)N2CCCCC23Cc2ccccc2NC3=O)cc1 (stereo unspecified) | inconclusive: 12.6 µM [inhibitor, single point] | – |
| O=C(NC1CCCC1)c1cc(CN2CCOCC2)on1 | inconclusive: 3.16 µM [inhibitor, partial curve, poor fit] | – |
| Cc1cc(C(=O)N2CCC(CCOc3ccc(F)cc3)C2)c(C)n1Cc1ccc(F)cc1 (stereo unspecified) | inconclusive: 22.4 µM [inhibitor, partial curve, poor fit] | – |
| O=C(NCCc1ccccc1)c1ccc(CN2C(=O)NC3(CCOCC3)C2=O)cc1 | – | inactive: -3.1% |

Reference: PubChem BioAssay AID1671194 (National Center for Advancing Translational Sciences (NCATS), 2021)
